# In all, about 310,000 compounds went through this assay and about 14,000 (4.5%) showed an effect of 50% or more. Effects have a minus sign here. The list shows a part of the results.
# Molecular target: human ether-à-go-go-related gene (hERG) potassium channel (human, UniProt Q12809)
# Assay: primary screen, population patch clamp on CHO cells stably expressing hERG
# 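Further: peak tail current of the secondary pulse compared with the same well before compound.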
# Chain of human ether-à-go-go-related gene (hERG) potassium channel (Q12809 whole entry, looked up): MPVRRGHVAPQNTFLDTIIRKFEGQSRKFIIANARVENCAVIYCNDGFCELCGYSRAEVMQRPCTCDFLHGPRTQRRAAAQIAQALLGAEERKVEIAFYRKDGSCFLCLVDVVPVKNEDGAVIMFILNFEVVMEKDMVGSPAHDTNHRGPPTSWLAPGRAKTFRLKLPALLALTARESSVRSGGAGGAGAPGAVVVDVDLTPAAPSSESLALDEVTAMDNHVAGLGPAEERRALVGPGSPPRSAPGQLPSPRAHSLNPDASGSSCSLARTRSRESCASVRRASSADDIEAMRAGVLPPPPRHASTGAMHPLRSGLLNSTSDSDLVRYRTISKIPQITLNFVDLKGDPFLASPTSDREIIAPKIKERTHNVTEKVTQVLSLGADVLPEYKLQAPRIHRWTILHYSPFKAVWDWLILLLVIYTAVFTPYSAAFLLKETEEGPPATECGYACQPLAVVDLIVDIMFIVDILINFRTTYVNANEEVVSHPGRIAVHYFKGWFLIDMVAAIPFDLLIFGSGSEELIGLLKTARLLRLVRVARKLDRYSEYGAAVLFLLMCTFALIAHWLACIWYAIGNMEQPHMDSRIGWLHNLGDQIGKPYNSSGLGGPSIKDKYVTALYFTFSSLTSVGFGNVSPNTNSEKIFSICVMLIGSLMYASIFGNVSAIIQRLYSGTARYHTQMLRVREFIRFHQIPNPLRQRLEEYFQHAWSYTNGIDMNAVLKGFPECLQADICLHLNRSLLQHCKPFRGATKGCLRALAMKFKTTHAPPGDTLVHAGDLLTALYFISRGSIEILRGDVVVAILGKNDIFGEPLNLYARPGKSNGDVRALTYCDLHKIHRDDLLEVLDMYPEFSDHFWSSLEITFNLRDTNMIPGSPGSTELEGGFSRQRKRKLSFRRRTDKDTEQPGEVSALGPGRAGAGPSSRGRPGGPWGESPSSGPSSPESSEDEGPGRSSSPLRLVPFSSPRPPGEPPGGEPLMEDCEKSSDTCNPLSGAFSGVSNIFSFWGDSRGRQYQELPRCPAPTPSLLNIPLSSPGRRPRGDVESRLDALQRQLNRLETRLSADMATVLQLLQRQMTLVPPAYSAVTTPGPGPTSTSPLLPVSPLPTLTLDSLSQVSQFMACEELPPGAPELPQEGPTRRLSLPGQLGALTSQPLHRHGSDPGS
row,SMILES,"hERG current change (%, negative = inhibition) at 10uM"
1,CCOC(=O)c1nnsc1NC(C)=O,19.2%
2,COc1cc(CNc2ccc3[nH]c(=O)[nH]c3c2)ccc1OCc1ccccc1F,11.6%
3,CCN1CCN(S(=O)(=O)c2c(C)cc(C)cc2C)CC1,10.8%
4,CSc1cccc(NC(=O)C2CCCN2S(=O)(=O)c2ccc3c(c2)CCC(=O)N3)c1 (stereo not drawn),-41.9%
5,O=C(NC1CCCC1)c1cc(=O)[nH]c2ccccc12,22%
6,COc1ccc(OC)c(CN2CCN(C(=O)CN3C(=O)NC4(CCCC4)C3=O)CC2)c1,-5.28%
7,CCCNC(=O)N1CCC(C(=O)c2ccc(F)cc2)CC1,-2.05%
8,COc1ccc(C(=O)NC(=S)N2CCN(c3ccc([N+](=O)[O-])cc3)CC2)cc1,-49.2%
9,CC(C)n1c(=S)[nH]c2cc(C(F)(F)F)ccc21,21.1%
10,O=S(=O)(Nc1ccc(N2CCOCC2)cc1)c1cccs1,0.205%
11,COc1ccc(CCNC(=O)CSCc2n[nH]c(=O)[nH]2)cc1OC,-16.1%
12,COc1ccc(NC(=O)N2CCC(c3nc4ccccc4[nH]3)CC2)cc1,9.26%
13,CC(=O)c1c(C)nc(-c2ccc(Cl)cc2Cl)n1O,5.52%
14,O=C(Cc1ccccc1[N+](=O)[O-])N1CCOCC1,13.6%
15,Cc1cccc(C)c1NC(=O)CSc1nnc(Cc2ccccc2)o1,-12.6%
16,COc1ccccc1C(CNC(=O)c1cc(C)nc2ccccc12)N(C)C (stereo not drawn),8.44%
17,CCc1ccc(N2CC(C(=O)N3CCN(c4ccccn4)CC3)CC2=O)cc1 (stereo not drawn),-24.3%
18,CC(=O)Nc1ccc2c(CSc3nnc(N)s3)cc(=O)oc2c1,4.47%
19,COc1ccc(/C=C2\C(=O)NC(=S)N2C(=O)c2ccc(C)cc2)cc1,5.76%

row,SMILES,"hERG current change (%, negative = inhibition) at 10uM"
1,CN1CCN(c2ccc(C(CC(N)=O)NC(=O)c3ccccc3)cc2[N+](=O)[O-])CC1 (stereo not drawn),16.6%
2,O=c1[nH]c2ccc(S(=O)(=O)Nc3ccc(Cl)cc3)cc2[nH]1,13.8%
3,Nn1c(COc2cccc(Br)c2)nnc1SCC(=O)NCC1CCCO1 (stereo not drawn),-7.31%
4,O=C(O)C1Cn2c(nc3c(c2=O)C2(CCCC2)Cc2ccccc2-3)S1 (stereo not drawn),17.3%
5,CC(=O)NCCn1c(SCC(=O)c2ccccc2)nc2ccccc2c1=O,-29.9%
6,CC(SC1=NCCN1S(=O)(=O)c1ccccc1)c1ccccc1 (stereo not drawn),-1.15%
7,Cc1cnc(C(=O)OCC(=O)Nc2cc(-c3cc(C)c(C)cc3C)nn2-c2ccccc2)cn1,-13.3%
8,CCCCn1c(N)c(N(CCOC)C(=O)CSCc2ccc(Cl)c(Cl)c2)c(=O)[nH]c1=O,-6.89%
9,CC1(C)CC(NC(=O)c2cc(Cl)ccc2Cl)CC(C)(C)N1,-1.21%
10,Cc1c(NC(=O)COC(=O)c2ccc(O)cc2)c(=O)n(-c2ccccc2)n1C,24.5%
11,Cc1[nH]n(C(N)=S)c(=O)c1C(c1ccccc1)C(C#N)C#N (stereo not drawn),23.8%
12,O=C(NN=C1C2CC3CC1CC(Cl)(C3)C2)c1ccccn1,-1.74%
13,COc1ccc(OCC(=O)NC(=O)c2ccccc2)c([N+](=O)[O-])c1,-6.74%
14,CC1CCCCC1N1CCN(C(=O)c2cccc(F)c2)CC1.O=C(O)C(=O)O (stereo not drawn),-17.5%
15,CC(C)C(NC(=O)c1ccccc1F)C(=O)NCc1ccc(F)cc1 (stereo not drawn),3.65%
16,CC(C)c1ccc(-c2c(NCCc3ccccc3)c(=O)c2=O)cc1,22.1%
17,Cc1oc2cc3oc(=O)cc(C)c3cc2c1C,15.6%
18,COc1ccc2c(=O)c(-c3nc(C)cs3)coc2c1,12.9%
19,O=c1[nH]c(=O)n(C2CCCCC2)c(O)c1C=NCCCn1ccnc1,7.34%

row,SMILES,"hERG current change (%, negative = inhibition) at 10uM"
1,COc1cc(C(=O)N2CCCc3ccccc32)c([N+](=O)[O-])cc1OC,11.1%
2,Cc1cccc(C(=O)OCC(=O)NCC2CCCO2)c1O (stereo not drawn),4.16%
3,O=C1CC[C@@H](CN(Cc2ccccc2)Cc2cn[nH]c2-c2cc3ccccc3o2)N1,-6.77%
4,COc1cccc(OC)c1C(=O)N1CCN(S(=O)(=O)c2ccc(C)cc2)CC1,0.852%
5,O=C(O)c1ccccc1-c1ccccc1C(=O)NCCCO,16.4%
6,CCO[C@@H]1OC(C(=O)NCc2ccccc2)=C[C@H](c2ccc(Br)cc2)[C@H]1CCCO,-11.5%
7,COc1ccc(CCn2c(-c3ccncc3)n[nH]c2=S)cc1OC,15.7%
8,NC(=O)NCC1CC1,13.2%
9,COC(=O)C1=C(C)NC(=O)NC1c1cn(-c2ccccc2)nc1-c1cccs1 (stereo not drawn),-2.23%
10,COc1ccc(OC)c(-c2csc(N(C)C(=O)Cc3ccccc3)n2)c1,21.1%
11,Cc1ccc(NC(=O)Nc2cccs2)c(Cl)c1,11.2%
12,COc1ccc(N2C(=O)N3[C@H](c4ccc(Cl)cc4)[C@@H]4C(=O)N(C5CCCCC5)C(=O)[C@@H]4[C@]3(Cc3ccc(Cl)cc3)C2=O)cc1,4.9%
13,COC(=O)COc1ccc2c(c1)O/C(=C\c1cccc([N+](=O)[O-])c1)C2=O,6.19%
14,Nc1cc(N)nc(SCC(=O)Nc2cc(S(=O)(=O)N3CCOCC3)ccc2Cl)n1,0.88%
15,CCSc1nc(-c2ccccc2)nc2c1CCCC2,7.26%
16,CCc1c(O)nc(SCc2ccccc2)n(C(C)CC)c1=O (stereo not drawn),9.58%
17,CCOC(=O)C(=O)Nc1ccccc1C#N,14.3%
18,O=C(Nc1ncc(Cc2cccc(Cl)c2)s1)C1CCCO1 (stereo not drawn),-12.5%
19,CCCc1nn(C)c(C(=O)Nc2ccc(C(C)(C)C)cc2)c1Cl,17.7%

# From paper PMC4336329 (PLoS ONE, 2015)
